# According to publication PMC4336329 (PLoS ONE, 2015):
# Hit rate of the full screen: of about 310,000 compounds, about 2,200 (0.71%) showed an effect of 50% or more. Effects have a minus sign here. The list shows a part of the results.
# Molecular target: human ether-à-go-go-related gene (hERG) potassium channel (human, UniProt Q12809)
# Assay: primary screen, population patch clamp on CHO cells stably expressing hERG
# Sequence of human ether-à-go-go-related gene (hERG) potassium channel (Q12809 whole entry, looked up): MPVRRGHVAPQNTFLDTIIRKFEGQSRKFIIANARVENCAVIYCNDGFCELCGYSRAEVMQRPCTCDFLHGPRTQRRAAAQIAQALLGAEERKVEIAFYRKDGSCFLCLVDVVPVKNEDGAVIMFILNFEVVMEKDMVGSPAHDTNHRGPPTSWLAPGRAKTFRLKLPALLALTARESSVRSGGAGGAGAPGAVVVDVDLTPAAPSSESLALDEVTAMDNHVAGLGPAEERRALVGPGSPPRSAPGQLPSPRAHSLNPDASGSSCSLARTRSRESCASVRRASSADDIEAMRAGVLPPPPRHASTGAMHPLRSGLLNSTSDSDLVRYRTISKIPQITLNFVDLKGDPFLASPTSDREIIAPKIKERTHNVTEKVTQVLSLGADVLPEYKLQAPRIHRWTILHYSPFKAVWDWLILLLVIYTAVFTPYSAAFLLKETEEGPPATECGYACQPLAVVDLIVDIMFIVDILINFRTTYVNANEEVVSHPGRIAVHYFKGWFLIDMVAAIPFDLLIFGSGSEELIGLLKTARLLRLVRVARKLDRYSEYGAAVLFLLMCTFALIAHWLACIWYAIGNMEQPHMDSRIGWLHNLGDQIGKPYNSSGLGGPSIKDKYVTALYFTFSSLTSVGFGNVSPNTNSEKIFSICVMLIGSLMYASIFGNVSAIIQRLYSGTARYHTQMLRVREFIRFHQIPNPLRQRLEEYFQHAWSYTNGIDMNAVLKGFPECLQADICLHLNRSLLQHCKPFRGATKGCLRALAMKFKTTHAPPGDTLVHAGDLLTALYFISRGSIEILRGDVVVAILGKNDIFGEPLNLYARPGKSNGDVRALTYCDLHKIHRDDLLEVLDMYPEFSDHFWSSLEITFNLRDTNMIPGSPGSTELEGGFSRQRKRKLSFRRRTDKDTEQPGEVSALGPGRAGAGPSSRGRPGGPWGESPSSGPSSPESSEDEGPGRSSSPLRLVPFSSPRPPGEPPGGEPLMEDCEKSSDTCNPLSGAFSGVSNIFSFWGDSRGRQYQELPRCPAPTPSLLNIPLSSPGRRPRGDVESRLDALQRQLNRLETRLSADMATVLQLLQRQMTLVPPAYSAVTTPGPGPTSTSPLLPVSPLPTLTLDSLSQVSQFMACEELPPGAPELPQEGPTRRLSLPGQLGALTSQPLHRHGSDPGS
row,Structure (SMILES),"hERG current change (%, negative = inhibition) at 1uM [%]"
1,CCOC(=O)[C@H]1[C@H]2COc3ccc(C)cc3[C@@H]2N2C(=O)CN(Cc3ccco3)C(=O)[C@@]12C,8.91
2,Cc1noc(C)c1C(=O)OCC(=O)C12CC3CC(CC(C3)C1)C2,1.11
3,CCOC(=O)c1cncn1[C@H](C)c1ccccc1,7.06
4,CC(Sc1nc(NCc2ccccc2)nc(N2CCOCC2)n1)C(=O)Nc1ccccc1 (stereo not drawn),6.63
5,S=c1[nH]nc(-c2ccccc2)o1,9.33
6,C[C@@H]1C[C@@H]2OC(=O)[C@]3(C)[C@H]2[C@@H](OC3(C)O)[C@]2(C)C(=O)CC[C@H]12 (stereo partly drawn),5.7
7,Cc1c(Cl)cccc1NS(=O)(=O)c1ccc(-c2ccc(=O)[nH]n2)o1,18.6
8,CCOC(=O)Nc1ccc(S(=O)(=O)Nc2nc(C)cc(C)n2)cc1,-16.2
9,O=C(O)C(=O)O.O=C(c1ccccc1)c1ccc(OCCCN2CCCC2)cc1,-29.9
10,COc1cc(/C=N/NC(=O)CCC(=O)NCc2ccccc2)cc(OC)c1OC,6.17
11,CC(=O)Nc1ccc(S(=O)(=O)N2CCCC(C(=O)O)C2)cc1 (stereo not drawn),2.62
12,N#C/C(=C/c1ccc(OCc2ccccc2)cc1)C(=O)NC1CCCCC1,9.04
13,Cc1cnc(C(=O)OCC(=O)c2ccc(F)c(F)c2)cn1,12
14,CCOc1ccc(N(CC(=O)O)S(=O)(=O)c2ccc(OC)c(OC)c2)cc1,9.21
15,COc1ccccc1N1CCN(CC(O)COc2ccc(S(=O)(=O)N3CCOCC3)cc2)CC1.Cl (stereo not drawn),7.63
16,CCOC(=O)c1cc(S(=O)(=O)N2CCN(C(=O)OCC)CC2)cn1C,8.69
17,Cc1ccc(CNC(=O)c2nnn(-c3cccc(C)c3)c2N)cc1,-5.66
18,O=C(COC(=O)Cc1ccc(Cl)c(Cl)c1)Nc1ccc2[nH]c(=O)[nH]c2c1,6.44
19,CCOc1cc(CNCCCN2CCOCC2)ccc1OCC(=O)NC(C)(C)C.Cl,9.51
20,O=C1CC2(CC(c3ccc(Cl)cc3)=NO2)C(=O)N1c1ccccc1 (stereo not drawn),5.02
21,CC(=O)c1cc2c(cc1N/C(=N/S(=O)(=O)c1ccc(C)cc1)c1ccc(Cl)cc1)OCO2,11.6
22,Cc1c(Cl)cccc1NC(=S)NCCc1ccccn1,9.98
23,Nc1cccc2c1C(=O)N(CCOc1ccc(F)cc1)C2=O,7.35
24,O=C(CCSc1nnc2ccc3ccccc3n12)Nc1ccc(F)cc1,8.44
